The list shows a part of the results. At the low end of the ranking, values are background and their order means little.

This test deals with SIX1 homeodomain (reference allele) (UniProt Q15475). The test is described as follows: universal protein binding microarray. Particulars: Universal all-10-mer PBM (8x60K, AMADID 030236), 300 nM GST-tagged protein, Alexa Fluor 488 anti-GST; buffer, salt, pH and temperature not stated; high values mean tight binding; most listed sequences are background and not binding sites; double strand, one strand shown.
As to AGAGCCTA, the binding signal is -0.163 E-score.
ACAACACT: the binding signal was -0.0613 E-score.
The result for GCCGGATA reads 0.409 E-score.
For ACACGGGC, the binding signal was 0.179 E-score.
Regarding GCCTGCGA, the binding signal is -0.197 E-score.
With GGGCGGCA the figure was -0.0398 E-score.
With GGGCATTA the figure was -0.0938 E-score; with CGCCCAAA, -0.209 E-score; with CGAGGCAG, -0.118 E-score.
As for CCCTAGGA, the binding signal turned out to be 0.0629 E-score.
The result for GGCTATAC reads 0.235 E-score.
GTAAATAC: the binding signal is 0.0624 E-score.
Take GATCTTCC: the binding signal came out at 0.246 E-score.
In the case of AGAGTGTC, the binding signal was found to be 0.0489 E-score.
GGTTTGTA: the binding signal amounted to 0.123 E-score.
Regarding CACTCCTG, the binding signal stood at 0.0641 E-score.
Turning to ATTCATTG, the binding signal is -0.0748 E-score.
The result for GCGAAACA reads -0.262 E-score; that for AGCCAGGA, 0.0776 E-score; that for CTTTCACA, -0.0977 E-score.
For the sequence CTATCCTA, the binding signal worked out at 0.198 E-score.
For GTGATTAA, the binding signal amounted to 0.0568 E-score.
For GACCGTCA, the binding signal was -0.228 E-score.
With CTATGATC, the binding signal is 0.302 E-score.
On to AACGGATG, for which the binding signal was 0.0176 E-score.
The result for AAAGGTGA reads 0.0271 E-score; that for CATAACGA, -0.0576 E-score.
For AATTCCCG, the binding signal is -0.0766 E-score.
Regarding AGTCGGGG, the binding signal worked out at 0.099 E-score.
Regarding CAAACATG, the binding signal was -0.084 E-score.
As to AACCAGTC, the binding signal is -0.113 E-score.
Regarding ACCTCAGC, the binding signal is -0.104 E-score.
On to AGCATAGC, for which the binding signal is -0.00155 E-score.
Regarding ACACTGAT, the binding signal turned out to be 0.218 E-score.
In the case of ACCTGGAG, the binding signal is -0.0255 E-score.
As to ATGCCCCC, the binding signal is -0.0992 E-score.
In the case of CATACTGA, the binding signal turned out to be 0.0287 E-score.
Take ACCAAGGA: the binding signal was -0.00147 E-score.
In the case of CGTATGCC, the binding signal is -0.013 E-score.
As to GAAGTATA, the binding signal came to 0.261 E-score.
As to AGCTGTTG, the binding signal is -0.132 E-score.
Turning to GACTACTA, the binding signal is -0.018 E-score.
With CCGACTCC the figure was -0.084 E-score; with AAAGTGTA, 0.0648 E-score.
For the sequence ACGCTACG, the binding signal was -0.0976 E-score.
With CCGTCTTA the figure was 0.0906 E-score.
In the case of ACCGTATC, the binding signal is 0.449 E-score.
In the case of ATATTCTA, the binding signal came to 0.176 E-score.
Consider CTACCGGA, for which the binding signal came out at 0.0622 E-score.
In the case of ATGGATGG, the binding signal was -0.0199 E-score.
For the sequence GGATGACC, the binding signal turned out to be 0.205 E-score.
As to ACCGCACG, the binding signal was -0.0634 E-score.
With TTACTCAA the figure was 0.0325 E-score; with CTTGAATC, 0.0498 E-score.
The result for GACACTCC reads 0.258 E-score; that for CCACCCAG, -0.111 E-score.
The result for GATGAGCA reads 0.088 E-score; that for GGTTATAC, 0.261 E-score; that for AAACGATG, -0.105 E-score.
For the sequence ATTTTCCA, the binding signal was 0.0926 E-score.
Regarding TCGAGTCA, the binding signal is -0.222 E-score.
For the sequence ACACCCCC, the binding signal turned out to be 0.386 E-score.
Turning to CTCGAGAA, the binding signal is -0.166 E-score.
With GTCCTGAA the figure was -0.0169 E-score; with AACTGGAG, -0.0514 E-score; with ACATTTGG, -0.0921 E-score.
For CTGCTCCA, the binding signal was -0.116 E-score.
With CAATTGTG the figure was 0.057 E-score; with ACAGTCCT, -0.219 E-score; with ACGGGACA, -0.0599 E-score.
With CTCGGTCC, the binding signal was -0.0609 E-score.
Take GTGAAAAA: the binding signal was -0.145 E-score.
ACGTTATG: the binding signal is -0.0556 E-score.
Consider ATACGCTG, for which the binding signal was found to be 0.268 E-score.
GAACTCAA: the binding signal is -0.0511 E-score.
Take AAGGAGTG: the binding signal was -0.0576 E-score.
Take CGTTGGAC: the binding signal is -0.113 E-score.
With ACGCCCCT the figure was 0.0924 E-score; with GACCAATC, -0.257 E-score; with CGGCGCCA, -0.157 E-score.
ATCCACAT: the binding signal was 0.166 E-score.
The result for ATATCGAG reads 0.335 E-score.
With AGCGGCAC the figure was -0.144 E-score.
Take CGAGTAGA: the binding signal came to 0.0988 E-score.
On to GCAGCAGC, for which the binding signal was -0.134 E-score.
With GAGGTACC, the binding signal is -0.063 E-score.
As to GGGGCACA, the binding signal is 0.075 E-score.
AAGGGTAC: the binding signal is -0.063 E-score.
Consider CCAGTGCG, for which the binding signal is -0.2 E-score.
With CCAACGGA the figure was -0.0619 E-score.
The result for ACCTAGTA reads -0.0718 E-score.
As for GTGTCCTA, the binding signal amounted to 0.103 E-score.
The result for GAGCGTGC reads -0.02 E-score.
AGAGCGTA: the binding signal is -0.0387 E-score.
Take CGCAGCGA: the binding signal is -0.0944 E-score.
In the case of ATTGGCAG, the binding signal is -0.273 E-score.
As to AAAAACTA, the binding signal is -0.0973 E-score.
With ATTCTGGA the figure was 0.0667 E-score.
Regarding CTCATGAA, the binding signal was -0.0117 E-score.
Turning to ACTCATAT, the binding signal was determined as 0.25 E-score.
The result for CGTAATTC reads -0.115 E-score; that for ATGGGCCG, -0.0134 E-score.
As for AGCGACTC, the binding signal was -0.286 E-score.
With AATCGTGT, the binding signal amounted to 0.0324 E-score.
Take ACAATGGT: the binding signal was -0.187 E-score.
Take TGCAGTAA: the binding signal was -0.109 E-score.
Regarding GTGGGGCA, the binding signal came to 0.00297 E-score.
With ACACTGAG, the binding signal was 0.114 E-score.
Turning to ACCCGAGA, the binding signal was 0.213 E-score.
With TACGAGAA the figure was -0.0247 E-score; with GCTGGTAA, -0.173 E-score; with ATAGCCCC, 0.181 E-score.
With GTCGTTCA the figure was -0.227 E-score; with AATGCTGG, -0.0758 E-score; with GCCTCACC, -0.312 E-score.
As for AGTATACC, the binding signal was found to be 0.389 E-score.
Regarding AAACATGC, the binding signal is -0.14 E-score.
Regarding CCTTAACC, the binding signal was -0.258 E-score.
Turning to AATGTAGT, the binding signal is -0.146 E-score.
In the case of AGCTCGTG, the binding signal turned out to be 0.102 E-score.
With AGCATCGA the figure was -0.119 E-score; with GCTTAGAC, -0.0677 E-score.
For ACCCCAAG, the binding signal is -0.0676 E-score.
Consider AATAGTGC, for which the binding signal was -0.139 E-score.
Consider ACATCGCG, for which the binding signal is -0.119 E-score.
On to CGAACATC, for which the binding signal was -0.128 E-score.
Consider GTTCGATA, for which the binding signal is 0.324 E-score.
The result for GATCGTCC reads 0.238 E-score; that for GAGACTAC, -0.00579 E-score.
For the sequence GTATATGA, the binding signal worked out at 0.225 E-score.
Consider AACTGATA, for which the binding signal turned out to be 0.409 E-score.
The result for AATGCGTA reads 0.0336 E-score; that for CTCCAGAC, -0.142 E-score; that for TAACTGAA, -0.0622 E-score.
With CCTGGAAC the figure was -0.0488 E-score; with CCCTACCG, 0.16 E-score; with CCTTAACA, -0.0963 E-score.
AAGATCTA: the binding signal stood at 0.122 E-score.
The result for AGATCAAG reads 0.232 E-score; that for CTCGCATC, 0.11 E-score.
With AAGCCGAC the figure was -0.00158 E-score; with AACATCTT, -0.237 E-score.
On to AGCCATTC, for which the binding signal is -0.244 E-score.
The result for GAGTGCAC reads -0.0757 E-score.
In the case of CGATGCCC, the binding signal worked out at 0.0139 E-score.
On to AGCGACCT, for which the binding signal is -0.309 E-score.
Regarding ACTTAAAT, the binding signal is -0.105 E-score.
For the sequence TGCTTCAA, the binding signal is -0.273 E-score.
As for ATTCAAAA, the binding signal is 0.00902 E-score.
Take GATAGGAC: the binding signal was 0.22 E-score.
With GTAATCCA, the binding signal is 0.162 E-score.
The result for CTATCGGC reads 0.121 E-score; that for CCTCGTCC, -0.13 E-score.
Take ACATATTG: the binding signal came to 0.108 E-score.
In the case of AGCGCCCA, the binding signal is -0.287 E-score.
With GCTATACC the figure was 0.284 E-score.
CTGATCAG: the binding signal was found to be 0.313 E-score.
Turning to AGACGCCT, the binding signal is 0.0241 E-score.
For GACCCTCA, the binding signal is -0.203 E-score.
For the sequence GAGTCAAC, the binding signal is -0.311 E-score.
The result for AACCGCCA reads -0.149 E-score.
As to AAGTCGTG, the binding signal was -0.167 E-score.
Turning to CTCAAGGA, the binding signal turned out to be 0.164 E-score.
Consider CACTCGAC, for which the binding signal was found to be 0.0256 E-score.
As to ATAGCTTC, the binding signal turned out to be 0.149 E-score.
As to CTATGTCC, the binding signal is -0.0555 E-score.
Consider AGGACCTC, for which the binding signal is -0.173 E-score.
ATTGATAA: the binding signal came to 0.0956 E-score.
On to CCCCCCAG, for which the binding signal was -0.0395 E-score.
On to GGGTTGAA, for which the binding signal is -0.147 E-score.
The result for GCCTGACA reads -0.144 E-score.
CTTCCATC: the binding signal was found to be 0.0188 E-score.

(Values after article PMC10668032.)
